Experimental data taken from the RNAGym collection of RNA variant scans (doi:10.7554/elife.90254).
The source gives no read counts; variants with many changes may rest on few reads.

B1: LINE1-full (parent)
chain: UACGUAGGUGGUUUUCCCCUGAUAGUGCUAAGGGGGCCUGGAAGUUUGGACUGGGCAGAGCUCAACACAGCGUGGCAAAGUGGCUGUGGCUAGACUGCCUCUCUGGAUUCCUCGUCACUCAGCAGGGCAUCUCUGAGAGAAAUGCC

Variants of: B1
Assay: self-cleavage, relative activity (ratio to wild type); higher = more cleavage; in vitro, sequencing; the parent is a self-cleaving ribozyme

Row | Variant | self-cleavage
1 | G25A U104G A129U U134A | 1.67
2 | G25A U115A U134A | 0.89
3 | G25C A79G U85C A142G | 0
4 | G25C C38A U73A A78G A140G | 0.3
5 | G25C U62A U119A | 0.02
6 | G25C U104C A124C A140U A142G | 0.92
7 | G25U A43U A69G U85G A124U | 0.13
8 | G25U C63A A140U | 0.03
9 | U26A A30C A57U A79G U87A | 0
10 | U26A A30G A94G | 0
11 | U26A A30G C113U A141G | 1.27
12 | U26A A31C A57U A79G | 0
13 | U26A A31G U52A G86A A94G | 0.48
14 | U26A A31U A42G A43G U102C | 0.84
15 | U26A A42G A107G U119C | 1.53
16 | U26A A42G G53A A65G A94G | 0.1
17 | U26A A43G A50G A124G | 0
18 | U26A A43G A59G C101A | 0.1
19 | U26A A43G A141G | 0.82
20 | U26A A43G U85C U115C A141G | 0.28
21 | U26A A50G C113U | 0.83
22 | U26A A50G U104A G139U | 1.15
23 | U26A A50U C51A U91C | 0.47
24 | U26A A57G A67U U81C C98G A117C | 0

Row | Variant | self-cleavage
25 | U26A A57G A77G U87A U102A A140G C146U | 1.15
26 | U26A A59G A92U | 0
27 | U26A A59U U119C U143C | 0.46
28 | U26A A65U U108C A121G | 0
29 | U26A A67C C101U | 0
30 | U26A A67G U96A U143C | 0.03
31 | U26A A69G G83C | 0.15
32 | U26A A69U U100C A142G | 0.08
33 | U26A A77G A79G | 1.16
34 | U26A A77G U109C C120U | 1.87
35 | U26A A77U A140U | 1.04
36 | U26A A77U U81A A107G | 1.51
37 | U26A A79G A117U | 1.24
38 | U26A A79G C84A | 0.08
39 | U26A A92G A107G G122A | 0.18
40 | U26A A92U A124G U134C | 0.39
41 | U26A A94U C131U | 0.27
42 | U26A A94U U104C U108C | 0.11
43 | U26A A107G G127A | 1.36
44 | U26A A124G U134A | 0.14
45 | U26A A129G A140G | 1.07
46 | U26A A136G A141G | 0
47 | U26A C76A A141G | 1.53
48 | U26A C90U A94G U96A C113U U132C | 0.04

Row | Variant | self-cleavage
49 | U26A C103U U119C U143A | 1.32
50 | U26A C123U U143C | 1.24
51 | U26A G34U A78G | 0.51
52 | U26A G35A U130C | 1.08
53 | U26A G36A U47A U143G | 1.11
54 | U26A G36C U45C U62A A138G A140U | 0.07
55 | U26A G54A A78G | 0.17
56 | U26A U29C A79U U112C G127A | 1.82
57 | U26A U39A A50C | 0.42
58 | U26A U39C A142G | 0.74
59 | U26A U39C C123A | 0.83
60 | U26A U39C C131U A136G | 1.02
61 | U26A U39C U85C | 0.11
62 | U26A U46A A59G U134G | 0.05
63 | U26A U47A A79G U115C U130C | 0.48
64 | U26A U47A A138U | 0.62
65 | U26A U47G U100C A142G | 1.23
66 | U26A U52A U102A | 0.98
67 | U26A U52C C113U | 0.43
68 | U26A U52G A65G | 0.1
69 | U26A U52G U104A U108C | 1.47
70 | U26A U62C A78G U87C | 0
71 | U26A U73A U96C | 0.11
72 | U26A U73A U119A | 0.83

Row | Variant | self-cleavage
73 | U26A U81A A129U | 1.03
74 | U26A U81C U130A | 0.51
75 | U26A U85A A107G | 0.13
76 | U26A U85A U119A | 0
77 | U26A U96C A138G | 0.28
78 | U26A U96C U104C | 0
79 | U26A U109A U115C | 1.24
80 | U26A U109A U132C A142G | 1.53
81 | U26A U112C C113U A129G | 0.23
82 | U26A U119C A142G | 0
83 | U26A U119G A140G | 0.86
84 | U26A U132C A141G | 0.92
85 | U26C A30C A77U U81A U143C | 2.44
86 | U26C A30G A31U U130C | 1.58
87 | U26C A30G A59G | 0.32
88 | U26C A30G G106A | 1.77
89 | U26C A30U U39C U132A | 1.23
90 | U26C A30U U81A | 2.14
91 | U26C A31G G36A A64G U132C | 0.2
92 | U26C A31U A50G U52A U115C | 0
93 | U26C A42G G72A U108C A124G | 2.92
94 | U26C A42G U91A A138G | 0
95 | U26C A42G U112A | 1.39
96 | U26C A42U A43G | 0

Row | Variant | self-cleavage
97 | U26C A43G A57G A138G | 0
98 | U26C A43G A77U A107G | 1.39
99 | U26C A43G A78G | 0.36
100 | U26C A43G A136U | 1.53
101 | U26C A43U C145U | 0.84
102 | U26C A43U U112C A124U | 1.05
103 | U26C A50G A92G | 0
104 | U26C A50G U109G | 0.71
105 | U26C A50U A64G | 0.23
106 | U26C A50U G53U A59G A65G A107G | 0
107 | U26C A50U U62C U119C | 0
108 | U26C A50U U81C A94G | 0.54
109 | U26C A57G A79G A121G | 1.15
110 | U26C A57G A79G A142G | 1.31
111 | U26C A57G U87G G89A | 0
112 | U26C A57G U91C | 0
113 | U26C A59G C63U G72U U112C A140G | 0.05
114 | U26C A59G U91A A138U A142G | 0
115 | U26C A59U U73G U115C | 0.92
116 | U26C A64G A94G | 0
117 | U26C A64G A141G | 0.4
118 | U26C A64G U73A U112C A138G | 0.42
119 | U26C A64G U96A A129G | 0.14
120 | U26C A64U A69U A94G G114A U119C A141G | 0.02

Row | Variant | self-cleavage
121 | U26C A65G U73C | 0
122 | U26C A65U U119G U132A A140G | 0
123 | U26C A67G A77U | 0
124 | U26C A67G A79G U109A A117C | 1.31
125 | U26C A67G U112C A136G | 0
126 | U26C A69G U104C C123G A136G | 1.02
127 | U26C A69U A107G | 0.05
128 | U26C A69U G89A | 0.08
129 | U26C A77G A78G U143C | 1.53
130 | U26C A77G G97A U109C | 0.09
131 | U26C A78G A138G | 1.59
132 | U26C A78U U91A | 1.47
133 | U26C A79G A140G | 1.17
134 | U26C A79U G114A A124U | 1.76
135 | U26C A94G A121U | 0.53
136 | U26C A94G A140G | 0.13
137 | U26C A94G U109A A142U | 0.3
138 | U26C A117G C128A A138U | 1.31
139 | U26C C28U U46C G74A U91C A136G | 0.35
140 | U26C C37A G135A U143C | 0.99
141 | U26C C37U A79G | 1.19
142 | U26C C38U U47A U104C A141G | 1.22
143 | U26C C68U U100C | 0.56
144 | U26C C76U U81C A124U | 1.68

Row | Variant | self-cleavage
145 | U26C C90U A92G | 0.03
146 | U26C C113U A117G | 2.04
147 | U26C C113U U115C | 1.5
148 | U26C G32A U39A C113U | 0.68
149 | U26C G32A U39C | 0.9
150 | U26C G33A A129C | 1.06
151 | U26C G34U A64U | 0.45
152 | U26C G34U U62C A136U | 0.07
153 | U26C G35A A69U | 0.07
154 | U26C G35A A107G | 1.54
155 | U26C G35C G82A | 2.27
156 | U26C G36A A77G A79G A107U | 0.27
157 | U26C G36C U52A C99A | 0.08
158 | U26C G36U U112C | 1.14
159 | U26C G40A U81C U112C A117G | 0
160 | U26C G40A U119C | 1.97
161 | U26C G48U U119C A136G | 1.46
162 | U26C G49U G58U A138G | 0.1
163 | U26C G54C A140G | 0.77
164 | U26C G54U U143A | 0.08
165 | U26C G70A C101U | 0.08
166 | U26C G70A U143A | 0.12
167 | U26C G72A A136G | 1.54
